Several values for one entry are separate records, joined by “and”; a condition that tells them apart may be missing. Equal entries are not always repeated. The shares of active, inactive and inconclusive entries below differ from those in the screen. For some assays here: Potencies beside an inconclusive call are fits to weak or partial responses and may not hold up. Activity calls are given as the source filed them. Unless noted, calls come from the whole dose curve; as a rule, active = well fitted curve in the direction sought with a large enough effect; inconclusive = small, poorly fitted or top-dose-only effect, or another doubt; inactive = no such curve, though single readings can be large; an effect the other way counts as inactive or inconclusive.
Assays:
[1] = P-glycoprotein substrates identified in KB-8-5-11 adenocarcinoma cell line, qHTS therapeutic library screen (AID 1346987); note: % is set by controls: 0 for no effect and ±100 for the full control effect; nearly all actives have a fitted effect of over 65% in size
How it was run: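 KB-8-5-11: colchicine-selected sub-line of KB-3-1 over-expressing P-gp; assay medium lacked colchicine. 72 h drug exposure at 37 degree C, CellTiter-Glo.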

[2] = test system: Zika virus NS2B-NS3 protease (unlinked complex); assay: Primary screen GU Rhodamine qHTS for Zika virus inhibitors: Unlinked NS2B-NS3 protease assay (AID 1347159); note: potency is the fitted concentration of half-maximal effect; nearly all actives have a fitted effect of over 60% in size
How it was run: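 Noncovalent NS2B hydrophilic domain–NS3 protease domain complex (25 nM) preincubated 15 min at room temperature with compounds (up to 114 microM) in 10 mM Tris-HCl pH 8.0, 0.01% Tween 20; 1.5 microM Rhodamine110 substrate added, fluorescence change over 15 min fitted to Hill equation.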

[3] = target: Cytochrome P450 2D6 (Homo sapiens) (UniProt P10635); assay: Cytochrome P450 family 2 subfamily D member 6 (CYP2D6) small molecule antagonists: luciferase biochemical (cell-free) qHTS assay (AID 1645840; active = well fitted curve in the direction sought with a large enough effect in the repeat runs; inconclusive = weak or mixed curves; inactive = no such curve, though single readings can be large; an effect the other way counts as inactive or inconclusive; note: nearly all actives have a fitted effect of over 55% in size; note: potency is the fitted concentration of half-maximal effect; for activity change, negative = inhibition: % is set by controls: 0 for no effect and ±100 for the full control effect)
Chain of UniProt P10635 (P10635 whole entry, looked up): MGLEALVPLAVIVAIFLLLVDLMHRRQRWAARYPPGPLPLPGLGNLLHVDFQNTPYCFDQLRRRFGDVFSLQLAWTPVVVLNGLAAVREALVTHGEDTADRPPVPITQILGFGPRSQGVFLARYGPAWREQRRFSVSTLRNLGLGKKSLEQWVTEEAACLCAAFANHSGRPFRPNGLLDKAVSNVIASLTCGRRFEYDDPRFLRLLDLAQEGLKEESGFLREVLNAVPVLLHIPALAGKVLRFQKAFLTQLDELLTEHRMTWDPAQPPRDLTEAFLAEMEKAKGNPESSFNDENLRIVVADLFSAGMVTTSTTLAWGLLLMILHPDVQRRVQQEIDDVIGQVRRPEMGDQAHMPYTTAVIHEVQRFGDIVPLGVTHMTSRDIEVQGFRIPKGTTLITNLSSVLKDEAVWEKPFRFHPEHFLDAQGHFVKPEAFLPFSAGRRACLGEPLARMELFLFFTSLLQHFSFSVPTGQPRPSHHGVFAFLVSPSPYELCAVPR
How it was run: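 P450-Glo luminescent screen: recombinant CYP2D6 enzyme–proluciferin substrate mix preincubated with compound 10 min at room temperature, then NADPH regeneration added for 1 h at room temperature. Detection reagent added for 20 min; luciferin light read as relative luminescence units.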

[4] = Primary qHTS for inhibitors of nuclear receptor binding SET domain protein 2 (NSD2) in an isogenic RCH-ACV NSD2 p.E1099K mutant (9B) (AID 1645876); note: potency is the fitted concentration of half-maximal effect; nearly all actives have a fitted effect of over 70% in size
[5] = Primary qHTS for inhibitors of nuclear receptor binding SET domain protein 2 (NSD2) in an RCH-ACV wild type WT cells (2C) (AID 1645877); conditions: activity change, negative = cell killing: at 44.9 µM (top of the series) unless noted; note: potency is the fitted concentration of half-maximal effect; nearly all actives have a fitted effect of over 70% in size
[6] = target: Phospholipid hydroperoxide glutathione peroxidase GPX4 (Homo sapiens) (UniProt P36969); assay: Primary qHTS Assay for Inhibitors of Recombinant Selenoprotein Glutathione Peroxidase 4 (GPX4) (AID 1845192); note: potency is the fitted concentration of half-maximal effect; nearly all actives have a fitted effect of over 65% in size
Chain of UniProt P36969 (P36969 whole entry, looked up): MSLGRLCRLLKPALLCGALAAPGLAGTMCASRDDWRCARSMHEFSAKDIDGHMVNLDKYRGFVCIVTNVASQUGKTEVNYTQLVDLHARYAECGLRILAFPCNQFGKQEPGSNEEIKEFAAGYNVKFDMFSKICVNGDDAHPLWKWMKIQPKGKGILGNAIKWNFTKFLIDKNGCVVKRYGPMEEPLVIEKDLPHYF
How it was run: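 GR-coupled readout: 100 nM GR, 1 mM GSH, 0.5 mM NADPH; NADPH fluorescence (ex 340/em 450 nm) read at t=0 and after 15 min RT. GPX4 200 nM, preincubated 30 min with compound; substrate 0.5 mM CHP.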

HEK293 = assay: Cytotoxic Profiling of Annotated Libraries Using Quantitative High-Throughput Screening (AID 1296008); conditions: Five cell lines viability, CellTiter-Glo ATP luminescence, 48-72 h; max response: hits give low values; note: nearly all actives have a fitted effect of over 60% in size; note: potency is the fitted concentration of half-maximal effect; for max response: % is set by controls: 0 for no effect and ±100 for the full control effect
How it was run: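 Compounds were pin-transferred onto cells and incubated 48 or 72 hr at 37 degree Celsius, 95% humidity. CellTiter-Glo was added, plates sat 10 min at room temperature, then ATP-coupled luminescence was imaged as the viability read-out.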

SKOV3 = assay: Primary qHTS to identify gynecologic anti-cancer compounds using libraries of approved drugs and bioactive compounds (AID 1345084); conditions: Gynecologic cancer cell panel viability, ATPlite luminescence, 48 h; series mostly up to 57.5 µM; note: % is set by controls: 0 for no effect and ±100 for the full control effect; nearly all actives have a fitted effect of over 55% in size
How it was run: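 Luminescence from the ATPlite ATP-monitoring reagent indicates viable cell number; lower signal means cytotoxicity. Cells received compound 16 h after seeding and were exposed for 48 h across five concentrations.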

[7] = test system: Zika virus NS2B-NS3 protease (linked construct); assay: Primary screen NINDS Rhodamine qHTS for Zika virus inhibitors (AID 1347160); conditions: activity change, negative = inhibition: at 57.1 µM (top of the series) unless noted; note: potency is the fitted concentration of half-maximal effect; nearly all actives have a fitted effect of over 55% in size
How it was run: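 Purified linked NS2B-NS3 protease (NS2B hydrophilic domain joined to NS3 protease by flexible linker), 25 nM in 10 mM Tris-HCl pH 8.0, 0.01% Tween 20. Compounds titrated, 15 min preincubation at room temperature; 1.5 microM Rhodamine110 substrate, FITC fluorescence change over 15 min.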

[8] = target: Glutathione peroxidase 1 (Homo sapiens) (UniProt P07203); assay: Primary qHTS Assay for Inhibitors of Recombinant Selenoprotein Glutathione Peroxidase 1 (GPX1) (AID 1845191); conditions: activity, negative = inhibition: at 48.8 µM (top of the series); note: nearly all actives have a fitted effect of over 65% in size
Chain of UniProt P07203 (P07203 whole entry, looked up): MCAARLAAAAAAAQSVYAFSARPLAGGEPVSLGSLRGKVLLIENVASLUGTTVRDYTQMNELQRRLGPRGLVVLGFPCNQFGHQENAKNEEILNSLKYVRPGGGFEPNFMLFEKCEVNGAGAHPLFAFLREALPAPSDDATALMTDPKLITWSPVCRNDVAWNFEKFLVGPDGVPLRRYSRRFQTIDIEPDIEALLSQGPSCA
How it was run: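 Recombinant GPX1 (10 nM final) was preincubated with compound for 30 min at room temperature, then reacted with 1 mM GSH, 0.5 mM CHP, 0.5 mM NADPH and 100 nM glutathione reductase; NADPH fluorescence (340/450 nm) was read at 0 and 15 min.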

[9] = qHTS Assay for Identifying Gametocytocidal Compounds (AID 743244);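 note: % is set by controls: 0 for no effect and ±100 for the full control effect; actives lower the fluorescent signal which means gametocytes are killed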; conditions: P. falciparum 3D7 stage III-V gametocytes, alamarBlue, 72 h; max response: hits give low values
How it was run: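 Compounds are pinned into medium, gametocytes (stage III–V, 3D7, 20,000 cells/well) added, and plates held 72 h at 37 °C in 5% CO2. AlamarBlue follows for 24 h before fluorescence reading.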

[10] = qHTS of pediatric cancer cell lines to identify multiple opportunities for drug repurposing: Primary screen for TC32 cells (AID 1347089); note: % is set by controls: 0 for no effect and ±100 for the full control effect; nearly all actives have a fitted effect of over 60% in size
How it was run: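 In the primary qHTS, MIPE compounds were tested at 11 concentrations (0.78 nM to 46 µM) and NPC compounds at 8 (0.59 nM to 46 µM) on TC32 cells for 48 h. CellTiter-Glo luminescence gave viability.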

[11] = qHTS of pediatric cancer cell lines to identify multiple opportunities for drug repurposing: Primary screen for BT-37 cells (AID 1347094);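 note: plate controls were DMSO for no effect and bortezomib for full effect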
How it was run: (§1)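 Plated cells (500-1,000 per well, growth media) were allowed to settle for 5 hours, treated with compound dilutions for 48 hours, then lysed with CellTiter-Glo for 15 min at room temperature before luminescence reading.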

[12] = qHTS of pediatric cancer cell lines to identify multiple opportunities for drug repurposing: Primary screen for Saos-2 cells (AID 1347097); note: % is set by controls: 0 for no effect and ±100 for the full control effect; nearly all actives have a fitted effect of over 40% in size
How it was run: as §1

[13] = qHTS of pediatric cancer cell lines to identify multiple opportunities for drug repurposing: Primary screen for Rh18 cells (AID 1347102); note: % is set by controls: 0 for no effect and ±100 for the full control effect; nearly all actives have a fitted effect of over 65% in size
How it was run: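 Cells (500-1,000/well) in growth media were settled 5 h at 37 degrees C, then given compounds for 48 h. Viability was read as CellTiter-Glo luminescence. Primary runs used MIPE at 11 points (0.78 nM-46 µM) and NPC at 8 points (0.59 nM-46 µM); follow-ups used 11 points.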

[14] = qHTS of pediatric cancer cell lines to identify multiple opportunities for drug repurposing: Primary screen for OHS-50 cells (AID 1347103);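 note: plate controls were DMSO neutral control for no effect and bortezomib positive control for full effect; nearly all actives have a fitted effect of over 40% in size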
How it was run: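 Cells (500-1,000/well) rested 5 h, then received compounds for 48 h; metabolically active cells were measured by CellTiter-Glo luminescence. Final concentrations spanned up to 46 µM (MIPE, 11-point) or 0.59 nM-46 µM (NPC, 8-point) in primary screens, 11-point in follow-ups.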

[15] = Primary qHTS for small molecule stabilizers of the endoplasmic reticulum resident proteome: Secreted ER Calcium Modulated Protein (SERCaMP) assay (AID 1508630); conditions: SH-SY5Y GLuc-SERCaMP (Gaussia luciferase released on ER calcium loss) secretion, thapsigargin, luminescence; activity change, negative = inhibition: at 38.4 µM (top of the series) unless noted; note: potency is the fitted concentration of half-maximal effect
How it was run: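 GLuc-SERCaMP-expressing SH-SY5Y cells, pretreated 16 h with compound, are challenged with thapsigargin to empty ER calcium stores; after 4 h, coelenterazine is added directly to the medium and luminescence is imaged.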

[16] = target: Cytochrome P450 3A4 (Homo sapiens) (UniProt P08684); assay: Cytochrome P450 family 3 subfamily A member 4 (CYP3A4) small molecule antagonists: luciferase qHTS assay (AID 1645841; active = well fitted curve in the direction sought with a large enough effect in the repeat runs; inconclusive = weak or mixed curves; inactive = no such curve, though single readings can be large; an effect the other way counts as inactive or inconclusive; note: nearly all actives have a fitted effect of over 45% in size)
Chain of UniProt P08684 (P08684 whole entry, looked up): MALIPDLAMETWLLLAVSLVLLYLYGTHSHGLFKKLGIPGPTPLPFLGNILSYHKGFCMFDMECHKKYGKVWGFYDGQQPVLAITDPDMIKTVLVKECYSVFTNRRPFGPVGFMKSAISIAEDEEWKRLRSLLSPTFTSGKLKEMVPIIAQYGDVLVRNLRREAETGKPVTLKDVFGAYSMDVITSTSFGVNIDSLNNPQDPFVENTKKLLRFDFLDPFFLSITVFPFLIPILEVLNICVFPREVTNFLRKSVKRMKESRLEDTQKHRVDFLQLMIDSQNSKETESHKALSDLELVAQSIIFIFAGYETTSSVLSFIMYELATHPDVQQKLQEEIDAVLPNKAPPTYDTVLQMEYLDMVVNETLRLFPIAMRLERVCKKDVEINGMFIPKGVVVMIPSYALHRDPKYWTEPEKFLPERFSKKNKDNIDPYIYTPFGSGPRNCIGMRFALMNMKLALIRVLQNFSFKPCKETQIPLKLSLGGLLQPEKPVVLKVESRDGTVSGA
How it was run: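 P450-Glo CYP3A4 enzyme with proluciferin substrate was preincubated with DMSO-dissolved compounds for 10 min at room temperature. NADPH regeneration solution started a 1 h reaction. Detection reagent stopped it, and luminescence was read after 20 min.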
Tags give direction and shape of the fitted curve.

COc1ccc2cc(-c3cc(-c4cc(Cl)cc(Cl)c4)nn3C(C)c3ccc(C(=O)NCCC(=O)O)cc3)ccc2c1 (centres undefined)
inactive: Potency [1] | Potency (SKOV3)
active: Potency [2] 2.24 µM
inconclusive: Potency [3] 21.3 µM [inhibitor, single point] | Potency [4] 25.8 µM [inhibitor, single point] | Potency [5] 20.5 µM [inhibitor, single point] | Potency [6] 22.7 µM [inhibitor, single point] | Potency (HEK293) 32.6 µM [inhibitor, partial curve, poor fit]

CC(O)C/C=C/C=C/C(=O)OC1C=C2COC(=O)C2(O)C2(C)CCCC(C)(C)C12 (centres undefined)
inactive: Potency [8] | max response (HEK293) -13.6% | Potency (SKOV3)
inconclusive: Potency [2] 10 µM [inhibitor, full curve] | Potency [7] 28.2 µM [inhibitor, single point] | Potency [5] 20.1 µM [inhibitor, single point]

C=C(C)C1Cc2cc(C(=O)OC3OC(CO)C(O)C(O)C3O)ccc2O1 (centres undefined)
inconclusive: Potency [2] 44.7 µM [inhibitor, partial curve, poor fit]
inactive: Potency [1] | max response (HEK293) -15% | Potency (SKOV3)

CNC(=O)CN(CCN(CCN(CC(=O)[O-])CC(=O)NC)CC(=O)[O-])CC(=O)[O-].O.[Gd+3]
inactive: max response [9] 14.6% and -8.14% | Potency [10] | Potency [11] | Potency [12] | Potency [13] | Potency [14] | Potency [3] | Potency [16] | outcome (HEK293) | Potency (SKOV3)
inconclusive: Potency [15] 10 µM [inhibitor, partial curve, poor fit]

From PubChem BioAssay (NCATS)
